Measurements as given in PubChem BioAssay AID2546 (National Center for Advancing Translational Sciences (NCATS), 2010).
Screen size: about 310,000 compounds; about 11,000 (3.5%) were called active. The inconclusive results got no clear call from the source; some entries with a clear call stand among them for comparison. Calls come from the whole dose curve; as a rule, active = well fitted inhibition curve with a large enough effect; inconclusive = small, poorly fitted or top-dose-only effect, or effect the other way; inactive = flat fitted curve, though single readings scatter. No potency is given beside an inconclusive call; the fits are too rough.

Test: VP16 counterscreen qHTS for inhibitors of ROR gamma transcriptional activity;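 note: Gal4-VP16 expression switched on by copper sulfate through the metallothionein promoter; nearly all actives have a fitted effect of over 50% in size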
Conditions: Drosophila S2 Gal4-VP16 UAS-luciferase, luminescence, 20 h; activity, negative = inhibition: at 53.6 µM (top of the series)
% is set by controls: 0 for no effect and ±100 for the full control effect; potency is the fitted concentration of half-maximal effect; tags give direction and shape of the fitted curve.

Compound	Potency	activity, negative = inhibition
CC(=O)NC12CC3CC(C1)CC(C(=O)N(C)Cc1cccc(Cl)c1Cl)(C3)C2	active: 7.08 µM	–
COc1ccc(-c2csc(N3C(=O)CNC3=S)n2)cc1	inconclusive [inhibitor, single point]	–
CCOc1cc(/C=C(\C#N)c2nc(-c3cccs3)c(NC(C)=O)s2)ccc1O	inconclusive [inhibitor, single point]	–
O=C(Oc1ccccc1)N1CCC2(CC1)CN(c1ncccn1)C2	inconclusive [inhibitor, single point]	–
Cc1ccc(OC2CCN(C(=O)C3CCC(=O)N(C4CC4)C3)CC2)cc1 (stereo not drawn)	inconclusive [inhibitor, single point]	–
CC(C)(CO)NC(=O)c1ccc2nc(Cc3cccc(Cl)c3)oc2c1	inconclusive [activator, single point]	–
Cc1ccc(NC(=O)C2CCCN2C(=O)OCc2ccccc2)cc1C (stereo not drawn)	inconclusive [activator, single point]	–
C=C(C)COc1ccc(-c2[nH]ncc2-c2ccc(Br)cc2)c(O)c1	active: 10 µM	–
O=C(N/N=C/C=C/c1ccccc1)c1cccnc1	inconclusive [inhibitor, single point]	–
CC(C)c1ccc(-c2csc3ncnc(N4CCN(C)CC4)c23)cc1	inactive	–
COc1ccc(CCCc2n[nH]c(=S)o2)c(C)c1	inconclusive [inhibitor, single point]	–
C/C(=N\NC(=O)c1nnn(-c2nonc2N)c1CN(C)C)c1ccco1	inactive	–
O=C(NCC1CCCO1)C(c1cccs1)N(Cc1ccccc1Cl)C(=O)c1ccc(-c2ccccc2)[nH]1 (stereo not drawn)	inactive	–
COc1ccc(C/C(N)=N/OC(=O)c2cccs2)cc1	inconclusive [activator, single point]	–
CC(C)N1C(=O)N(c2ccc(Cl)cc2)C(C)(O)CC1(C)C (stereo not drawn)	inactive	–
O=CN(/C=C1\Sc2ccccc2C1=O)Cc1ccccc1	inconclusive [inhibitor, single point]	–
CCOc1ccc(-c2cc(NC(=O)Cn3ncc4c3-c3ccccc3OC4)on2)cc1OCC	inconclusive [inhibitor, single point]	–
CCOC(=O)C1(CCc2ccccc2)CCN(Cc2nccn2CC)CC1	active: 11.2 µM	–
O=C(C1CCCO1)N1CCN(C(=S)Nc2cc(F)cc(F)c2)CC1 (stereo not drawn)	inactive	–
Cc1ccccc1OCC(=O)NC(=S)Nc1cccc2cc(O)ccc12	inconclusive [inhibitor, single point]	–
O=C(CSC(=S)N1CCOCC1)c1cc2ccccc2oc1=O	inactive	–
Cn1c(=O)n(Cc2ccccc2F)c2ccccc21	inactive	–
C#CC(C)OC(=O)c1nnc2c3ccccc3n(COC)c2n1 (stereo not drawn)	–	inactive: -6.83% [at 10 µM]
Nc1ccc(-c2nc3cc([N+](=O)[O-])ccc3o2)cc1	inconclusive [inhibitor, full curve, poor fit]	–
COc1ccc(CC(=O)Nc2cccc(-c3nnc(-c4ccccc4)o3)c2)cc1OC	inconclusive [inhibitor, single point]	–

Compound	Potency	activity, negative = inhibition
Cc1ccc(CN2CCNC(=O)C2CC(=O)NCCCn2ncc3ccccc32)o1 (stereo not drawn)	inconclusive [activator, single point]	–
Cc1csc(-c2coc3cc(O)cc(C)c3c2=O)n1	inconclusive [inhibitor, single point]	–
CC(=O)c1cn(CC(=O)Nc2ccccc2)c2ccccc12	inconclusive [inhibitor, single point]	–
COc1ccc(CSc2nc3ccccc3[nH]2)cc1	inconclusive [inhibitor, partial curve]	–
CCc1ccc(NC(=S)Nc2ccc3cn[nH]c3c2)cc1	inconclusive [inhibitor, single point]	–
COCCN(C(=S)Nc1ccc(C)cc1C)C(C)c1cccs1 (stereo not drawn)	inconclusive [inhibitor, single point]	–
COc1ccc(OC)c(/C=N/NC(=O)CCc2ccc(O)c(O)c2)c1	inconclusive [inhibitor, partial curve, poor fit]	–
O=C(NC(=S)Nc1ccccc1)c1cc(-c2ccccc2)nc2ccccc12	active: 4.47 µM	–
O=C(Nc1cccc(S(=O)(=O)c2cccc(NC(=O)c3ccco3)c2)c1)c1ccco1	inconclusive [inhibitor, single point]	–
CCOC(=O)C1(Cc2ccc(OC)cc2)CCN(C(=O)c2sc(C)nc2C)CC1	inactive	–
COc1ccc(NC(=S)NC(=O)c2ccccc2Cl)cc1	inconclusive [inhibitor, single point]	–
C#CCNC(=O)C1=C[C@H](C2CCCCC2)C[C@H](OCc2ccc(CO)cc2)O1	inconclusive [inhibitor, single point]	–
O=C1C(C=NCc2ccccn2)=C(O)c2ccccc21	active: 5.01 µM	–
O=C1CC(N2CCN(c3ccc(O)cc3)CC2)C(=O)N1c1ccc2c(c1)OCO2 (stereo not drawn)	–	inactive: 5.38% [at 10 µM]
CC(=O)N1N=C(c2ccc(C)cc2)CC1c1ccc2c(c1)OCO2 (stereo not drawn)	inactive	–
O=C(Cc1ccc(S(=O)(=O)N2CCCCC2)s1)Nc1ccc(F)cc1F	inconclusive [inhibitor, single point]	–
CCCN(CCC)S(=O)(=O)c1ccc(C(=O)Nc2nnc(-c3cccc(OC)c3)o2)cc1	active: 0.631 µM	–
Cc1ccc(C)c(NC(=O)C2CCC(C)(C(=O)O)C2(C)C)c1 (stereo not drawn)	inconclusive [inhibitor, single point]	–
CC1CC(C(F)F)n2nc(C(=O)Nc3sc4c(c3C#N)CCC(C(C)(C)C)C4)nc2N1 (stereo not drawn)	inconclusive [inhibitor, single point]	–
Cc1ccc(C(C)C)c(OCc2nnc(SCC(=O)Nc3ncc(C)s3)n2C)c1	inconclusive [inhibitor, single point]	–
COc1ccc(/C=N/NC(=O)CSc2ccccc2)cc1OC	inconclusive [activator, partial curve, poor fit]	–
CCCOc1ccc(C(=O)C(CN2CCCC2)c2ccccc2)cc1 (stereo not drawn)	inconclusive [inhibitor, single point]	–
COc1cc(/C=N/NC(N)=S)cc(Br)c1OCc1ccccc1F	active: 4.47 µM	–
Cc1ccc(-c2csc(Nc3ccccn3)n2)cc1	inconclusive [inhibitor, single point]	–
O=C(CSC1=NNC(c2ccccn2)S1)Nc1ccc(C(F)(F)F)cc1 (stereo not drawn)	active: 5.01 µM	–

Compound	Potency	activity, negative = inhibition
CC(C)CC(=O)Nc1ccc(-c2cn3ccsc3n2)cc1	inconclusive [inhibitor, single point]	–
Cc1ccc2nc(-c3ccc(NC(=O)c4ccco4)cc3)[nH]c2c1	inconclusive [inhibitor, single point]	–
COCCNC(=O)c1ccc2c(=O)n(Cc3ccco3)c(SCC(=O)Nc3ccc(OC)cc3OC)nc2c1	inconclusive [inhibitor, single point]	–
O=C(CSc1ncnc2c1oc1ccccc12)Nc1cccc(C(F)(F)F)c1	inconclusive [inhibitor, full curve, poor fit]	–
CC(=O)N1CCCc2cc(S(=O)(=O)Nc3cccc(C)c3C)ccc21	inactive	–
CC(=O)N/N=C/c1ccc([N+](=O)[O-])o1	active: 3.55 µM	–
CCNC(=S)N/N=C/c1c(Cl)cccc1Cl	active: 2.82 µM	–
Cc1ccc(NCC(=O)N/N=C\c2ccc([N+](=O)[O-])o2)cc1	inconclusive [inhibitor, single point]	–
CC(C)C1S/C(=N/N=C/c2ccco2)NC1=O (stereo not drawn)	active: 3.16 µM	–
Cc1ccc(/C=N/Nc2nc3ccccc3s2)o1	active: 10 µM	–
CC1=C(C(=O)OC2CCC(C)CC2)C(c2ccc(O)c([N+](=O)[O-])c2)NC(=O)N1 (stereo not drawn)	inactive	–
CCOC(=O)CNc1c(-c2ccccc2)nc2ccc(Cl)cn12	inconclusive [inhibitor, single point]	–
Cc1nc2c(O)cccc2cc1CO	inconclusive [inhibitor, single point]	–
Cc1ccc(C(=O)N/N=C\c2ccc(-c3ccc([N+](=O)[O-])cc3)o2)cn1	inactive	–
CCOC(=O)Cc1csc(-n2sc3ccccc3c2=O)n1	inconclusive [inhibitor, single point]	–
Cc1ccc2nc(SC(C(=O)c3ccccc3)c3ccccc3)nc(C)c2c1 (stereo not drawn)	active: 15.8 µM	–
O=C(/C=C/c1ccc([N+](=O)[O-])s1)N1CCCC1	active: 12.6 µM	–
Cc1ccc(N2C(=O)CC(Sc3ccccc3C(=O)O)C2=O)cc1 (stereo not drawn)	inconclusive [inhibitor, full curve, poor fit]	–
COc1ccc(OC)c(NC(=O)CN2C(=O)COc3ccc(C)cc32)c1	inactive	–
COc1cccc(NC2SC(=O)N(c3ccccc3)C2=O)c1 (stereo not drawn)	inconclusive [activator, single point]	–
COc1ccccc1N1C(=O)CC(N(O)c2ccccc2)C1=O (stereo not drawn)	inconclusive [activator, partial curve]	–
COc1ccc(/C=C/C(=O)Oc2cccc(/C=N/NC(=O)c3cccc(F)c3)c2)cc1	inconclusive [inhibitor, single point]	–
Cc1nnc(SCC(=O)Nc2ccccc2)c2ccccc12	inconclusive [activator, full curve]	–
